Results reported in the supplement of paper PMC4967469.
IC50 is the fitted dose that halves viability relative to control wells, and lower means more sensitive; where the fit passes the top or lowest dose, that dose stands as a limit. AUC, from the same fit, is the share of area under the viability curve across the 256-fold dose range; it is 1 without any effect and falls as sensitivity rises. For part of these data: Any top dose called inferred was derived from the fitted curves, not read from the paper. For part of these data: Where an entry number is given, a second screen of the drug exists; the two often differ.

How the values were obtained:
Assay in all cases: Viability of human cancer cell lines after 72 h of drug (GDSC screen)
Thapsigargin = compound: C/C=C(/C)C(=O)O[C@H]1C(C)=C2[C@H]([C@@H]1OC(=O)CCCCCCC)[C@@](C)(OC(C)=O)C[C@H](OC(=O)CCC)[C@@]1(O)[C@H]2OC(=O)[C@@]1(C)O [Thapsigargin]; conditions: top dose 0.512 µM; top dose inferred
Protocol: (§1)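 Human cancer cell lines in 384-well plates, medium with 10% serum, drug for 72 h over a 256-fold dose range (nine 2-fold or five 4-fold steps up to the top dose). Adherent lines were fixed and stained with the nucleic acid dye Syto60, suspension lines read with resazurin; signal relative to control wells, capped at 0 and 100%. One two-parameter sigmoid per drug and line, fitted in a mixed model over all curves with the slope shared within a line.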

QL-X-138 = compound: C=CC(=O)Nc1cc(-n2c(=O)ccc3cnc4ccc(-c5cn[nH]c5)cc4c32)ccc1C [QL-X-138]; conditions: top dose 10.24 µM; top dose inferred
Protocol: as §1

GSK269962A = compound: CCn1c(-c2nonc2N)nc2cnc(Oc3cccc(NC(=O)c4ccc(OCCN5CCOCC5)cc4)c3)cc21 [GSK269962A]; conditions: top dose 5 µM; screen: GDSC drug entry 1192; top dose inferred
Protocol: as §1

MPS-1-IN-1 = compound: COc1cc(N2CCC(O)CC2)ccc1Nc1cc(Nc2ccccc2S(=O)(=O)C(C)C)c2cc[nH]c2n1 [MPS-1-IN-1]; conditions: top dose 20 µM; top dose inferred
Protocol: as §1

(5Z)-7-Oxozeaenol = compound: COc1cc(O)c2c(c1)/C=C/C[C@H](O)[C@H](O)C(=O)/C=C\C[C@H](C)OC2=O [(5Z)-7-Oxozeaenol]; conditions: top dose 10 µM; top dose inferred
Protocol: as §1

CP466722 = compound: COc1cc2ncnc(-n3nc(-c4ccccn4)nc3N)c2cc1OC [CP466722]; conditions: top dose 16 µM; top dose inferred
Protocol: as §1

Zibotentan = compound: COc1nc(C)cnc1NS(=O)(=O)c1cccnc1-c1ccc(-c2nnco2)cc1 [Zibotentan]; conditions: top dose 20 µM; top dose inferred
Protocol: as §1

ABT-869 = compound: Cc1ccc(F)c(NC(=O)Nc2ccc(-c3cccc4[nH]nc(N)c34)cc2)c1 [ABT-869]; conditions: top dose 1.024 µM; top dose inferred
Protocol: as §1

CHIR-99021 = compound: Cc1cnc(-c2cnc(NCCNc3ccc(C#N)cn3)nc2-c2ccc(Cl)cc2Cl)[nH]1 [CHIR-99021]
Protocol: as §1

KU-55933 = compound: O=c1cc(-c2cccc3c2Sc2ccccc2S3)oc(N2CCOCC2)c1 [KU-55933]; conditions: top dose 10 µM
Protocol: as §1

[1] = top dose 2.56 µM, screen: GDSC drug entry 154
[2] = top dose 10 µM, screen: GDSC drug entry 1241, top dose inferred

Cell Line	AUC (Thapsigargin)	IC50 (Thapsigargin) [µM]	AUC (QL-X-138)	IC50 (QL-X-138) [µM]	AUC (GSK269962A)	IC50 (GSK269962A) [µM]	AUC (MPS-1-IN-1)	IC50 (MPS-1-IN-1) [µM]	AUC ((5Z)-7-Oxozeaenol)	IC50 ((5Z)-7-Oxozeaenol) [µM]	AUC (CP466722)	IC50 (CP466722) [µM]	AUC (Zibotentan)	IC50 (Zibotentan) [µM]	AUC (ABT-869)	IC50 (ABT-869) [µM]	AUC (CHIR-99021; [1])	IC50 (CHIR-99021; [1]) [µM]	AUC (CHIR-99021; [2])	IC50 (CHIR-99021; [2]) [µM]	AUC (KU-55933)	IC50 (KU-55933) [µM]
MDA-MB-468 (breast, adherent)	0.162	0.00312	0.569	0.98	0.928	> 5	0.903	> 20	0.612	1.26	0.745	4.88	0.985	> 20	0.988	> 1.02	0.988	> 2.56	0.987	> 10	0.922	> 10
MFE-319 (endometrium, adherent)	0.123	0.00211	0.754	3.35	0.947	> 5	0.97	> 20	0.764	3.52	0.863	13.1	0.982	> 20	0.988	> 1.02	0.979	> 2.56	0.966	> 10	0.923	> 10
MKN1 (stomach, adherent)	0.523	0.0371	0.817	6.12	0.889	> 5	0.937	> 20	0.718	2.7	0.839	11.8	0.987	> 20	0.986	> 1.02	0.949	> 2.56	0.959	> 10	0.873	> 10
NCI-H522 (lung adenocarcinoma, adherent)	0.372	0.0133	0.903	> 10.2	0.926	> 5	0.87	> 20	0.723	3.05	0.785	8.27	0.976	> 20	0.975	> 1.02					0.959	> 10
NCI-H2066 (small cell lung carcinoma, adherent)					0.969	> 5			0.927	> 10									0.974	> 10	0.975	> 10
SK-CO-1 (large intestine, adherent)	0.328	0.011	0.989	> 10.2	0.666	0.876	0.825	11.1			0.989	> 16	0.989	> 20	0.989	> 1.02	0.965	> 2.56	0.952	> 10	0.953	> 10
SU-DHL-10 (B-cell lymphoma, suspension)			0.325	0.242	0.979	> 5	0.942	17.2	0.873	5.17	0.584	1.6	0.997	> 20	0.998	> 1.02	0.961	> 2.56	0.998	> 10	0.945	8.82
